According to the supplement of paper PMC3334620:
In all, about 33,000 sequences were measured (“E-score (-0.5 to 0.5)”: median about -0.021, highest 2% from about 0.32 on). This is one part of the list.

Target: T1, Zap1 (UniProt P47043)
T1 sequence: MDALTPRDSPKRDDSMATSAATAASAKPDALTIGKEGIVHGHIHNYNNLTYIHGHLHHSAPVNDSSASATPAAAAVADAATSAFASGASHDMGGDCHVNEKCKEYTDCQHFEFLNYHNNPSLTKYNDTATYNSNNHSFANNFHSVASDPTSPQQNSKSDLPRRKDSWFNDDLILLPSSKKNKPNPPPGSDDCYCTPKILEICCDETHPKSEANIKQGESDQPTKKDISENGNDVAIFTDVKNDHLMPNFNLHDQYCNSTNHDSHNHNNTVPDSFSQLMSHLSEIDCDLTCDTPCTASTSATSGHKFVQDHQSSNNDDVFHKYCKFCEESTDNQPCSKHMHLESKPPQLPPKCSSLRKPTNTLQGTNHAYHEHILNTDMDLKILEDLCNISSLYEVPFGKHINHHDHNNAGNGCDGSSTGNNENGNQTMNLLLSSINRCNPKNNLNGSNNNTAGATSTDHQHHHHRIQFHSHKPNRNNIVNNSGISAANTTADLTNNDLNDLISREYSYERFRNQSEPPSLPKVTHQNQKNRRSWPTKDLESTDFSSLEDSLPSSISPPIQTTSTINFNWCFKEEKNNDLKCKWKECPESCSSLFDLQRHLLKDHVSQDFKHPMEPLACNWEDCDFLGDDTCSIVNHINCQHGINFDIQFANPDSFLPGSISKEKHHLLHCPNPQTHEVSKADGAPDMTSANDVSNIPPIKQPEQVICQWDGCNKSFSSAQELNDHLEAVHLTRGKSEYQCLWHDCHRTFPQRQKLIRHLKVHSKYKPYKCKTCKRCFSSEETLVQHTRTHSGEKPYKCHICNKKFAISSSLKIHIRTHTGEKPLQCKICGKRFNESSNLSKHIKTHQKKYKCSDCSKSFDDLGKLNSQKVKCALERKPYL
Experiment: PBM E-score (8-mer binding enrichment) (E-score (-0.5 to 0.5)); higher = stronger / more preferred TF binding; most listed sequences are background and not binding sites
Conditions: protein concentration: 200 nM; construct: GST-full length
Experimental: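 Universal 'all 10-mer' protein binding microarrays (Agilent AMADID 015681) probed with GST-tagged S. cerevisiae TFs (full-length or DBD) made by in vitro transcription/translation (PURExpress), about 100-200 nM. Bound TF was detected with fluorescent anti-GST. Each ungapped 8-mer (which stands for itself and its reverse complement) is scored by the PBM enrichment score (E-score), a modified Wilcoxon-Mann-Whitney statistic from -0.5 to +0.5, computed with the Universal PBM Analysis Suite. Scale: above 0.35 generally sequence-specific binding.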

**Q.** Which “PBM E-score” value does the source give for TCAATCAA here?
**A.** 0.103

**Q.** How did the “PBM E-score” value turn out when CTCAGGCC was run?
**A.** -0.26

**Q.** For CGTGCCTA, which “PBM E-score” value is on record?
**A.** -0.216

**Q.** With ACCGCAAC as the sequence, how does the “PBM E-score” value read?
**A.** 0.341

**Q.** CGTATATC was tested. Which “PBM E-score” value did it give?
**A.** -0.218

**Q.** For ATCCCCCC, which “PBM E-score” value is on record?
**A.** -0.429

**Q.** Which “PBM E-score” value does the source give for CGCCAGGC here?
**A.** -0.252

**Q.** With AGTACTCG as the sequence, how does the “PBM E-score” value read?
**A.** 0.0121

**Q.** How did the “PBM E-score” value turn out when ACTCCGCT was run?
**A.** -0.192

**Q.** Which “PBM E-score” value does the source give for CTTTTCCA here?
**A.** 0.0307

**Q.** GCGTTATA was tested. Which “PBM E-score” value did it give?
**A.** 0.218

**Q.** Which “PBM E-score” value does the source give for GACTCCCA here?
**A.** -0.295

**Q.** How did the “PBM E-score” value turn out when CACATCAA was run?
**A.** -0.0712

**Q.** With TACGTGCA as the sequence, how does the “PBM E-score” value read?
**A.** -0.0221

**Q.** How did the “PBM E-score” value turn out when AGCTCTAG was run?
**A.** -0.0907

**Q.** How did the “PBM E-score” value turn out when GAATCAAC was run?
**A.** 0.0243

**Q.** How did the “PBM E-score” value turn out when CATGGGTC was run?
**A.** 0.121

**Q.** How did the “PBM E-score” value turn out when GGGTCGTA was run?
**A.** 0.245

**Q.** For GACACGAA, which “PBM E-score” value is on record?
**A.** 0.0447

**Q.** For ACCCCATA, which “PBM E-score” value is on record?
**A.** 0.373

**Q.** Which “PBM E-score” value does the source give for CCTTGAAG here?
**A.** 0.261

**Q.** For AGAAGGAT, which “PBM E-score” value is on record?
**A.** -0.18

**Q.** How did the “PBM E-score” value turn out when ACAGTCCC was run?
**A.** -0.223

**Q.** For TAGGGGAA, which “PBM E-score” value is on record?
**A.** -0.0351

**Q.** With CCGAATCA as the sequence, how does the “PBM E-score” value read?
**A.** -0.175

**Q.** How did the “PBM E-score” value turn out when GCATGCAC was run?
**A.** -0.164

**Q.** With GCCATTAA as the sequence, how does the “PBM E-score” value read?
**A.** 0.0139

**Q.** CGCGTCAA was tested. Which “PBM E-score” value did it give?
**A.** -0.0118

**Q.** ATCGTGAG was tested. Which “PBM E-score” value did it give?
**A.** -0.0882

**Q.** With ATACTAAA as the sequence, how does the “PBM E-score” value read?
**A.** 0.209

**Q.** CGAATCTC was tested. Which “PBM E-score” value did it give?
**A.** -0.111

**Q.** For AGCCAAAC, which “PBM E-score” value is on record?
**A.** 0.0264

**Q.** For CTGCGTCC, which “PBM E-score” value is on record?
**A.** -0.139

**Q.** CAATCGGG was tested. Which “PBM E-score” value did it give?
**A.** 0.0498

**Q.** For GGCTTTAA, which “PBM E-score” value is on record?
**A.** 0.0849

**Q.** With GAGATCTC as the sequence, how does the “PBM E-score” value read?
**A.** -0.243

**Q.** ATCCTGTA was tested. Which “PBM E-score” value did it give?
**A.** 0.0994

**Q.** For TAGAGACA, which “PBM E-score” value is on record?
**A.** -0.17

**Q.** How did the “PBM E-score” value turn out when GGCATTAC was run?
**A.** 0.0188

**Q.** AGCAAATG was tested. Which “PBM E-score” value did it give?
**A.** -0.171

**Q.** AGATGAGC was tested. Which “PBM E-score” value did it give?
**A.** -0.133

**Q.** With TATGTAGA as the sequence, how does the “PBM E-score” value read?
**A.** -0.049

**Q.** How did the “PBM E-score” value turn out when CATGCAAG was run?
**A.** -0.0958

**Q.** Which “PBM E-score” value does the source give for CCGAGCTA here?
**A.** -0.263

**Q.** CACGAGGA was tested. Which “PBM E-score” value did it give?
**A.** -0.135

**Q.** With ATGGTGGC as the sequence, how does the “PBM E-score” value read?
**A.** -0.197

**Q.** With AAAAGTGA as the sequence, how does the “PBM E-score” value read?
**A.** 0.132

**Q.** With GGAACGGA as the sequence, how does the “PBM E-score” value read?
**A.** -0.0971

**Q.** With ATATTTAC as the sequence, how does the “PBM E-score” value read?
**A.** 0.141

**Q.** How did the “PBM E-score” value turn out when GAGTCATA was run?
**A.** 0.0211

**Q.** For GCACGCAA, which “PBM E-score” value is on record?
**A.** -0.0909

**Q.** CGCCTAGC was tested. Which “PBM E-score” value did it give?
**A.** -0.394

**Q.** For CGCCTACA, which “PBM E-score” value is on record?
**A.** 0.00538

**Q.** How did the “PBM E-score” value turn out when AGTAACAA was run?
**A.** 0.161

**Q.** How did the “PBM E-score” value turn out when CTACAGAG was run?
**A.** 0.00241

**Q.** How did the “PBM E-score” value turn out when GGAATATA was run?
**A.** 0.0159

**Q.** CGGCGGGC was tested. Which “PBM E-score” value did it give?
**A.** -0.0632

**Q.** Which “PBM E-score” value does the source give for ACGCTGGG here?
**A.** -0.189

**Q.** How did the “PBM E-score” value turn out when GGTAGTTA was run?
**A.** 0.339

**Q.** For GTGATTCA, which “PBM E-score” value is on record?
**A.** -0.0338

**Q.** For GGAGTCGA, which “PBM E-score” value is on record?
**A.** -0.327

**Q.** With CAGATCAC as the sequence, how does the “PBM E-score” value read?
**A.** 0.0274

**Q.** How did the “PBM E-score” value turn out when CGTACGAC was run?
**A.** -0.126

**Q.** For CGTAATTA, which “PBM E-score” value is on record?
**A.** 0.228

**Q.** CGATGGAG was tested. Which “PBM E-score” value did it give?
**A.** -0.0101

**Q.** Which “PBM E-score” value does the source give for ACATATAC here?
**A.** -0.0961

**Q.** How did the “PBM E-score” value turn out when AGGCAAGG was run?
**A.** -0.237

**Q.** For CGGCAGGC, which “PBM E-score” value is on record?
**A.** -0.34

**Q.** Which “PBM E-score” value does the source give for ACTGGGAT here?
**A.** 0.106

**Q.** For ATGGACGG, which “PBM E-score” value is on record?
**A.** 0.0838

**Q.** Which “PBM E-score” value does the source give for CACCGTGG here?
**A.** -0.0703

**Q.** How did the “PBM E-score” value turn out when CAGTCCGC was run?
**A.** -0.258

**Q.** How did the “PBM E-score” value turn out when AGCTAAAG was run?
**A.** -0.0341

**Q.** How did the “PBM E-score” value turn out when GGCTGCGA was run?
**A.** -0.0139

**Q.** How did the “PBM E-score” value turn out when CATCAAAG was run?
**A.** 0.0848

**Q.** Which “PBM E-score” value does the source give for AAACTATA here?
**A.** 0.0991

**Q.** For AAACCTTA, which “PBM E-score” value is on record?
**A.** 0.288

**Q.** With ACTACGTG as the sequence, how does the “PBM E-score” value read?
**A.** -0.0538

**Q.** With ATGCGAGA as the sequence, how does the “PBM E-score” value read?
**A.** -0.0251

**Q.** For ACGACGCC, which “PBM E-score” value is on record?
**A.** -0.251

**Q.** How did the “PBM E-score” value turn out when CCGCTGCC was run?
**A.** -0.27

**Q.** CAAATACC was tested. Which “PBM E-score” value did it give?
**A.** 0.213

**Q.** AGGTGCGA was tested. Which “PBM E-score” value did it give?
**A.** -0.0972

**Q.** How did the “PBM E-score” value turn out when GCTGCTGA was run?
**A.** -0.149

**Q.** How did the “PBM E-score” value turn out when AGAAAGAA was run?
**A.** -0.0809

**Q.** For AACCCCAG, which “PBM E-score” value is on record?
**A.** 0.304

**Q.** Which “PBM E-score” value does the source give for AACTGCGA here?
**A.** -0.221

**Q.** How did the “PBM E-score” value turn out when ATTTTTCC was run?
**A.** 0.0562

**Q.** How did the “PBM E-score” value turn out when CTGGAAGA was run?
**A.** -0.0219

**Q.** How did the “PBM E-score” value turn out when AACCCCCG was run?
**A.** -0.149

**Q.** How did the “PBM E-score” value turn out when TAGATAGA was run?
**A.** -0.0636

**Q.** Which “PBM E-score” value does the source give for TCATTCGA here?
**A.** 0.0152

**Q.** With ATTGCAAC as the sequence, how does the “PBM E-score” value read?
**A.** 0.0809

**Q.** CCAACGCC was tested. Which “PBM E-score” value did it give?
**A.** -0.182
